According to PubChem BioAssay AID360 (National Center for Advancing Translational Sciences (NCATS), 2006):
The whole screen tested about 48,000 compounds, of which about 550 (1.1%) were called active. Not shown: some 4% with an inconclusive outcome. Rule as the data show it: active = potency below about 15 µM; inconclusive = mostly about 16 µM to 33 µM; inactive = weaker than that. The list shows a part of the results.

Target: Lysosomal acid glucosylceramidase (Homo sapiens) (UniProt P04062)
Experiment: Glucocerebrosidase;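 also: the screen sought inhibitors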
Settings: purified enzyme, resorufin glucoside fluorescence (screen aimed at inhibitors), 20 min
Outline: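 Normal human glucocerebrosidase (0.2 nM final) was assayed with resorufin β-D-glucopyranoside (30 uM final) in 50mM citric acid/KH2PO4, 10mM sodium taurocholate, 0.01% tween-20, pH 5.9. Compounds were titrated; fluorescence (Ex 548, Em 600) read after 20 min at RT.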
Potency is read from the fitted curve at half-maximal effect.

UniProt P04062, sequence (P04062 whole entry, looked up): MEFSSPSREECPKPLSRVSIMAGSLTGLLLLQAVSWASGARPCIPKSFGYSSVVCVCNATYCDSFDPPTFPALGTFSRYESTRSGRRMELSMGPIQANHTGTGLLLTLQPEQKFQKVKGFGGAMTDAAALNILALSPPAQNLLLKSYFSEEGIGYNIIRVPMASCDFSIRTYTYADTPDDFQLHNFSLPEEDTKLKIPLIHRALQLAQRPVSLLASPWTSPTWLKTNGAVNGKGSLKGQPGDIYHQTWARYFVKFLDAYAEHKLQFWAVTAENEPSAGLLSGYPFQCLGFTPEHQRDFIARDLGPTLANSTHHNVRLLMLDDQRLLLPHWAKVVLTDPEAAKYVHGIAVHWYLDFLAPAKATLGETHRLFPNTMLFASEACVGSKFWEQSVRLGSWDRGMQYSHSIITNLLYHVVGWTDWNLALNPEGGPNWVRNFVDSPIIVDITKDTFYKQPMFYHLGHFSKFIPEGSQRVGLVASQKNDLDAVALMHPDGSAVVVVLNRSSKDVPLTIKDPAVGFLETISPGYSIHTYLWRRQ

| Compound | Potency |
| --- | --- |
| COC(=O)[C@H](CCSC)NC(=O)NCCC1=CCCCC1 | inactive: > 76.9 µM |
| Cc1nc(SCC(=O)NCCc2ccccc2)n[nH]1 | inactive: > 76.9 µM |
| O=C(CCNc1cc(Cl)cc(Cl)c1)c1ccco1 | inactive: > 76.9 µM |
| Cc1ccc(N2CC(C(=O)N3CCN(C(=O)c4ccco4)CC3)CC2=O)cc1 (centres undefined) | inactive: > 76.9 µM |
| Cc1c(C(=O)O)oc2ccc(S(=O)(=O)N3CC(C)CC(C)C3)cc12 (centres undefined) | inactive: > 76.9 µM |
| CCN1CCN(CC(O)COCc2ccccc2)CC1 (centres undefined) | inactive: > 76.9 µM |
| Cc1ccc(S(=O)(=O)N[C@@H](CC(C)C)C(=O)NCc2ccco2)cc1 | inactive: > 76.9 µM |
| Cc1cc(C(=O)CN2C(=O)NC(Cc3c[nH]c4ccccc34)C2=O)c(C)n1C (centres undefined) | inactive: > 76.9 µM |
| CC1=C(C)NC(=S)SC1 | inactive: > 76.9 µM |
| COc1ccc(C(=O)c2no[n+]([O-])c2C(=O)c2ccc(OC)cc2)cc1 | inactive: > 76.9 µM |
| CCC(C)(C)n1nnnc1C(CC(C)C)N1CCC(C(N)=O)CC1 (centres undefined) | inactive: > 76.9 µM |
| Cc1[nH]nc2c1C(c1cccnc1)N(c1ccc(Br)cc1)C2=O (centres undefined) | inactive: > 76.9 µM |
| COCCn1c(=S)[nH]c2cc(C(=O)N3CCc4ccccc43)ccc2c1=O | inactive: > 76.9 µM |
| CCOC(=O)C1CCN(C(=O)NC23CC4CC(CC(C4)C2)C3)CC1 | inactive: > 76.9 µM |
| Cc1cc2oc3c(c(=O)c2cc1C)C(c1cccc(Br)c1)N(Cc1ccco1)C3=O (centres undefined) | inactive: > 76.9 µM |
| O=S(=O)(NC1CC1)c1cccc(S(=O)(=O)N2CCCC2)c1 | inactive: > 76.9 µM |
| COc1ccc(OCc2nc(N)nc(Nc3cccc(C)c3C)n2)cc1 | inactive: > 76.9 µM |
| Nc1nc2ccccc2n1C(=O)CCc1ccccc1 | inactive: > 76.9 µM |
| CCOc1ccc2[nH]c(=O)c(CN(Cc3cccs3)Cc3nnnn3C(C)(C)CC)cc2c1 | active: 15.3 µM |
| O=C(CSc1nc2ccccc2n1CC(=O)N1CCCC1)N1CCN(C(=O)c2ccco2)CC1 | inactive: > 76.9 µM |

| Compound | Potency |
| --- | --- |
| COc1ccc(CNC(=O)c2ccccc2SC)cc1 | inactive: > 76.9 µM |
| CNC(=O)NC(=O)CSc1ccc(NC(C)=O)cc1 | inactive: > 76.9 µM |
| Cc1ccc(/C=c2\s/c(=C(/C#N)C(=O)N3CCCC3)n(Cc3ccco3)c2=O)s1 | inactive: > 76.9 µM |
| COCCNC(=O)Cc1cn(C)c2ccccc12 | inactive: > 76.9 µM |
| Cc1ccc(S(=O)(=O)N2CCCC2)cc1S(=O)(=O)N1CCCC1 | inactive: > 76.9 µM |
| CSCCC(NC(=O)C1CCC(C)CC1)C(=O)N1CCN(c2ccccn2)CC1 (centres undefined) | inactive: > 76.9 µM |
| Cc1cccc2cc3c(NC(=O)C(C)C)nn(C)c3nc12 | inactive: > 76.9 µM |
| Cc1ccc(-c2c3c(=O)n(C)c(=O)n(C)c3cn2Cc2ccccn2)cc1 | inactive: > 76.9 µM |
| CC1=C(C(=O)OC(C)C)C(c2cccs2)N2C(=O)C(C)SC2=N1 (centres undefined) | inactive: > 76.9 µM |
| COc1ccc(C(C)=O)c(OC(=O)c2ccc(OC)c(OC)c2)c1 | inactive: > 76.9 µM |
| CC1CCN(CCCNC(=O)COc2cc(=O)n(C)c3ccccc23)CC1 | inactive: > 76.9 µM |
| CC1CC(=O)c2cnc(Nc3cccc(C(F)(F)F)c3)nc2C1 (centres undefined) | inactive: > 76.9 µM |
| OCC1(c2cc(C(F)(F)F)n[nH]2)CCCCC1 | inactive: > 76.9 µM |
| CCOC(=O)c1c(C)[nH]c(C(=O)OCc2c(C)noc2C)c1C | inactive: > 76.9 µM |
| CC(C)COc1ccc(-c2nnn(CC(=O)N3CCCC3)n2)cc1 | inactive: > 76.9 µM |
| COc1ccc(N2CCN(c3nc(NCCO)nc(N4CCOCC4)n3)CC2)cc1 | inactive: > 76.9 µM |
| Cc1ccc(C(=O)CSc2nnc(-c3ccco3)n2CC2CCCO2)cc1 (centres undefined) | inactive: > 76.9 µM |
| O=C(CN(C(=O)CCC(=O)Nc1ccccn1)c1ccc2c(c1)OCO2)NCc1ccco1 | inactive: > 76.9 µM |
| O=C(CCc1nc(-c2ccccc2F)no1)NCCN1CCN(Cc2ccccc2)CC1 | inactive: > 76.9 µM |
| COc1ccc(Cn2nnc(C(=O)Nc3ccc(F)cc3)c2N)cc1 | inactive: > 76.9 µM |

| Compound | Potency |
| --- | --- |
| O=C(c1ccc(Br)s1)N1CCN(Cc2ccc3c(c2)OCO3)CC1 | inactive: > 76.9 µM |
| COC(=O)c1[nH]c2cccc(OC)c2c1NC(=O)CN1CCN(c2cccc(OC)c2)C(C)C1 (centres undefined) | inactive: > 76.9 µM |
| CCCCC(=O)Nc1ccc2c(c1)nc1n2CCOC1 | inactive |
| COC(=O)c1ccc(CSc2nc3ccccc3s2)o1 | inactive: > 76.9 µM |
| NC(=O)c1ccsc1NC(=O)COC(=O)Cc1ccsc1 | inactive: > 76.9 µM |
| CC1CN(C(=O)c2cc3c(=O)n4ccccc4nc3s2)CC(C)O1 (centres undefined) | inactive: > 76.9 µM |
| COc1ccc(C2C=C(C)Nc3nc(SC)nn32)cc1 (centres undefined) | inactive: > 76.9 µM |
| C#CC1(O)CC(C)NCC1(C)CCC#N (centres undefined) | inactive: > 76.9 µM |
| O=C(NCc1cccs1)NC1CCCCC1 | inactive: > 76.9 µM |
| COc1ccc(F)cc1S(=O)(=O)N1CCC(C(N)=O)CC1 | inactive: > 76.9 µM |
| O=C(O)C1CC=CCC1C(=O)N1CCCC1 (centres undefined) | inactive: > 76.9 µM |
| CN(C)CCCNC(CC(=O)Nc1ccc(Cl)cc1)C(=O)O (centres undefined) | inactive: > 76.9 µM |
| CC(C)Oc1ccccc1C1CC(=O)Nc2cc3c(cc21)OCO3 (centres undefined) | inactive: > 76.9 µM |
| Cc1noc(C)c1COC(=O)CCc1nc2ccccc2c(=O)[nH]1 | inactive: > 76.9 µM |
| O=C(Nc1ccc(S(=O)(=O)N2CCCCC2)cc1)c1cnccn1 | inactive: > 76.9 µM |
| Cc1ccc2[nH]c(=O)c(COC(=O)C3CCCO3)cc2c1 (centres undefined) | inactive: > 76.9 µM |
| CCOC(=O)C1=C(C)NC(=O)C(C(N)=O)C12CCCCC2 (centres undefined) | inactive: > 76.9 µM |
| CC(C)CNC(=O)C1CCCN(S(=O)(=O)c2ccc(-n3cnnn3)cc2)C1 (centres undefined) | inactive: > 76.9 µM |
| Cc1noc(NS(=O)(=O)c2ccc(NC(=O)Nc3ccc(Cl)c(Cl)c3)cc2)c1C | inactive: > 76.9 µM |
